# Assay results: the supplement of paper PMC10126150
# Sequences with one replicate were seen in a single cluster, so their values are uncertain.
# System: ATP
# Experiment: switch fluorescence ratio, 500 uM ATP over buffer (Cy3 cluster intensity, sum of 5 cycles each) (fold (ratio)); higher = stronger signal-on switching upon ATP binding; sequences stand for … in TCGTCGGCAGCGTCAGATGTGTATAAGAGACAGTTTTTTTTTTTTTTTTTTTTTTTTT…TC
# Settings: aptamer strand: ATP DNA aptamer (quencher-CACCTGGGGGAGTATTGCGGAGGAAGG + anchor), 100 nM annealed; ATP concentration: 500 uM; one replicate
# Summary of the method: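 Imaging in selection buffer was followed by imaging after 15 min with 500 uM ATP at 22 °C, for Cy3-labelled switching-strand clusters annealed to 100 nM quencher-labelled ATP aptamer on a modified Illumina MiSeq flow-cell. Five of these buffer/ATP cycles ran, separated by NaOH stripping and re-annealing. The fluorescence ratio per cluster is summed target-cycle over summed buffer-cycle Cy3 intensity, averaged per switch-domain sequence; clusters outside 100-1000 RFU were removed.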
# 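Also: ATP exposure 15 min at 22 °C before imaging.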
row,Sequence,switch fluorescence ratio
1,CAGTACGCCT,1.08
2,TACGGGACAA,1.16
3,ATAGACATAT,0.948
4,GCTGTTCGTT,0.982
5,TCACGATGTA,1.03
6,GACATTCTAC,1.08
7,TGTTAGCACG,1.05
8,CAACCGGGCA,1.04
9,CTCAATGTTC,1.03
10,ATATGTCGTC,0.948
11,CATCGACATG,0.995
12,TAACGTAACT,1.11
13,ACACCCTTTT,1.12
14,CGCGGGTTA,0.997
15,ATCGGGAATC,1.12
16,GGGCCAAACA,0.961
17,GACGCCTGAG,1.03
18,CTGCGCCGAG,1.03
19,TTTTGAGCC,0.976
20,TCCCCCAGGT,1.1
21,CTTGCACTCC,1.67
22,ATCGAATTTG,1.01
23,TCAAGGACGT,1.06

row,Sequence,switch fluorescence ratio
1,CTCAAAGAAA,1
2,CAAAGGGTTT,0.947
3,CCGTAATGGA,1.21
4,GAGATCATCT,1.04
5,TAATGGAATG,1.03
6,CTGAATGGTC,1
7,AAGGCGGGTC,0.965
8,CTTGGGTGCG,0.973
9,GTGTGATTGG,0.936
10,ACCAATTGG,1.01
11,CATGATAACT,0.99
12,GTCAGTGGTA,1.01
13,GGTGGACCAC,0.976
14,ATCGTTTGTA,0.994
15,GTTACGTTAG,1.03
16,GCAATCTAGT,1.11
17,TTGAACTGGG,1.04
18,GAATCCACAC,1.12
19,TGAATAATGG,1.04
20,AGTTCCCTGC,1.04
21,GCGTATTTTA,1.03
22,TTAACCAGGA,0.999
23,ATAACGGCCG,0.97

row,Sequence,switch fluorescence ratio
1,TTAGTAGGAA,1.02
2,CAGAGTACAT,1.02
3,AAAAAGGAA,1.03
4,TAAAGTCAGC,1.06
5,CCTATCGATT,1.03
6,ATTACTGCCC,1.04
7,AAGGAGATT,0.97
8,TTTGCCGCGC,1.08
9,GGCAGACGCT,0.974
10,GAAAAGTTTG,1.06
11,TATTTGCCGG,1.03
12,TCTGATGGTA,1.05
13,GGGTTCTCCC,1.01
14,TTATTGGTCT,1.01
15,AAAATAGT,0.991
16,GGTGCGGATA,0.966
17,AACTGACGTG,1.09
18,TTACAGGTTT,1.02
19,AGTCACAACG,1.04
20,GAGCTTGGAC,1.03
21,ACGGGGGAAA,0.993
22,GGATGGCACG,0.914
23,CCATCATGTT,0.984

row,Sequence,switch fluorescence ratio
1,GCGGAAAATG,0.973
2,CAGTGCGCGG,1.01
3,CAAAATTTAC,1.19
4,GATGATAAGC,0.985
5,GACTATTAAG,1
6,CGACCACTAA,1.14
7,TATATCGA,0.984
8,AGGGTGTCGG,1
9,CGCGCCAGGG,1.21
10,GTACCGGGTG,0.989
11,GAAGTCAGGT,1
12,CTGTGTGGTT,0.978
13,GGGTCTCTGA,0.996
14,CGCTTTGGCC,1.04
15,GTTTATGAAG,0.959
16,TTTCGCACAG,1.06
17,ACAGTTGAC,1.03
18,GCTACCGATC,1.3
19,GGTAGGGTCA,1
20,GAGATTGTTG,0.954
21,TTCCCTCTAC,1.13
22,GACTCGCCGT,1.02
23,TTTTCACACA,0.935

row,Sequence,switch fluorescence ratio
1,GTGATGTGTT,0.997
2,CGCAGGGGCG,0.982
3,AGACGGGCTT,0.994
4,CAGCGTTTCA,1.05
5,AACGGGGGG,0.956
6,GTAAGAGTTA,1
7,GGTCAAGGTA,0.994
8,AATTTTCTAA,1.03
9,AACTAGCAAG,1.07
10,AAGGGCACAA,0.992
11,ACACAACCAC,1.3
12,ACCTCGTCGC,1.12
13,GATGGTAT,1.04
14,CATTGTCAAT,1.05
15,TAAAAATGCT,0.968
16,TAGTTACGGG,1.01
17,ATCAGTTTCG,0.963
18,TTTAGCGATA,1.21
19,GCGAGCGCAT,1.09
20,ATGCGCTAC,5.17
21,GTGTACTTAT,1.05
22,TATGTTCTTA,1.01
23,CCCTGGTTAG,1.07

row,Sequence,switch fluorescence ratio
1,TTGGAAGTCA,1.01
2,GCGGTTGTGG,1.02
3,TTGCCAGCTA,0.96
4,CTATCACGGA,1
5,CGTTATGTGG,0.944
6,TTATCGGGGA,1.03
7,TTATCCAGGG,1.21
8,GAACCTACTC,1.44
9,AGATGCGCGC,1.03
10,CGGCTCAATT,1.06
11,TCCAGAATCT,1.01
12,TCTGGGTATC,0.964
13,GAGGGCGGGC,0.963
14,GTTTACCGTA,1.1
15,TGTGCGGATT,1.04
16,TGTAAGAAAG,1.04
17,GACTGTTCTT,0.992
18,ATAGTATTGG,0.997
19,AGATGACCTG,0.991
20,ACGCCTAAGG,1.08
21,GGGTGTGCGT,0.984
22,TATGCATACT,1.07
23,ATTACCAGCG,1.02

row,Sequence,switch fluorescence ratio
1,CTAGTATTT,1.03
2,TTGTAGAAGC,0.987
3,CCTCCTAAGG,1.89
4,CGGTCGAGGG,1.02
5,TGAGATTTTC,1.09
6,GGTAGGATGG,0.962
7,GATCAAACTA,1.01
8,CCTTACCCGG,2.36
9,TTTCTACCTA,1.03
10,ATAGAATAGC,1.03
11,TAGCAAAAGT,1.01
12,ATAATAGCAA,1.54
13,GGCTCATGGA,0.962
14,CGGAGTCGCA,1.02
15,TTACCCAGGA,1.41
16,TCCTTTTAAG,1.04
17,GAGTCTTAGA,0.998
18,GTAATAGATT,0.926
19,TACGGGTTGC,1
